# Assay results from the supplement of paper PMC12217912.
# This is one part of the list. The full chains were built here from the parent and the listed change. Inactive controls read about 0.05.
# B1: TEV protease; numbered along this chain (parent)
# chain: MGESLFKGPRDYNPISSSICHLTNESDGHTTSLYGIGFGPFIITNKHLFRRNNGTLVVQSLHGVFKVKDTTTLQQHLVDGRDMIIIRMPKDFPPFPQKLKFREPQREERICLVTTNFQTKSMSSMVSDTSCTFPSGDGIFWKHWIQTKDGQCGSPLVSTRDGFIVGIHSASNFTNTNNYFTSVPKNFMELLTNQEAQQWVSGWRLNADSVLWGGHKVFMVKPEEPFQPVKEATQL
# Variants of: B1
# Assay: raw area under fraction-flipped curve 0-4 h after induction (AUC4h, not background-subtracted), DNA-recorder readout of cleavage of the substrate (dimensionless); higher = more cleavage of the substrate by the protease variant
# Conditions: temperature: 34 °C; time window: 0-4 h after rhamnose induction
# Procedure: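 In vivo DNA recorder in E. coli TOP10(DE3) ΔrhaA at 34 °C. Each TEVp single-site mutant (parent TEVp 0) is paired with a single-site variant of the 7-mer TEVs (canonical ENLYFQ|S). The substrate sits between flexible linkers in a Bxb1-sfGFP-TEVs-SsrA fusion, so cleavage stabilises Bxb1 and speeds flipping of a recombination array, read by NGS. The value is the raw area under the fraction-flipped curve over 0-4 h after rhamnose induction (AUC4h), with ≥20 reads per time point. It is not background-subtracted; inactive controls average about 0.047.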
# 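Also: Bxb1 expression induced with 0.2% (w/v) L-rhamnose at OD600 near 0.5, cultures sampled hourly, flipped fraction per protease–substrate barcode pair counted by paired-end Illumina sequencing.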
Variant,area with substrate ENLYFQA,area with substrate ENLYFQE,area with substrate ENLYFQG,area with substrate ENLYFQK,area with substrate ENLYFQM,area with substrate ENLYFQN,area with substrate ENLYFQP,area with substrate ENLYFQR,area with substrate ENLYFQS,area with substrate ENLYFQT,area with substrate ENLYFQW,area with substrate ENLYFQY,area with substrate ENLYFQC,area with substrate ENLYFQI,area with substrate ENLYFQL,area with substrate ENLYFQF,area with substrate ENLYFQD,area with substrate ENLYFQH,area with substrate ENLYFQQ,area with substrate ENLYFQV
F65E,0.0698,0.0649,0.0852,0.0585,0.0813,0.0757,0.06,0.0627,0.0846,0.0598,0.0529,0.0817,,,,,,,,
L73G,0.0485,0.0576,,0.0502,0.0468,0.0484,,0.0542,0.0507,0.0595,0.0433,0.0534,0.053,0.0462,0.0491,,,,,
R51M,0.0876,0.0679,0.124,0.0679,0.103,0.0724,0.0769,0.0526,0.112,0.0632,0.0647,,0.099,0.0582,0.0323,0.0828,,,,
R51C,0.0995,,0.0791,0.0688,0.107,0.0766,,0.0589,0.108,0.062,0.0705,0.0657,0.107,0.0708,0.0634,0.116,0.0666,0.0704,,
P94Q,0.0918,,0.101,0.0728,0.0961,0.0744,0.0702,0.0625,0.103,0.0674,,0.0878,0.0997,,0.0636,0.0915,0.0529,0.0681,0.0641,0.0459
P94Y,0.0957,0.0592,0.103,0.0633,0.0796,,0.0591,0.0504,0.0988,0.0662,0.0728,0.0715,0.12,0.0584,,0.0676,,,,
P94D,0.173,,,0.0648,,0.0797,,0.0482,0.106,0.0473,,,,,0.0446,,,0.108,0.093,0.0697
K68F,0.0922,,,0.0609,0.0748,,,,0.0927,0.0843,,,0.107,0.0589,0.0581,,,,,
K90I,0.0943,0.066,0.157,0.0548,0.0932,0.0786,0.0663,0.0604,0.104,0.0727,0.0679,0.0849,0.13,0.0591,0.065,,0.0591,0.0912,0.0724,
K90F,0.0958,,,,0.106,0.0762,0.061,0.0807,0.0983,,,,0.106,0.0482,0.0602,,,,,0.0543
N52S,0.0645,0.0533,,,0.0735,0.0638,,0.0595,0.0739,0.052,0.0563,,0.0854,0.0481,,,0.0657,0.0622,,0.0498
N52F,0.0519,,0.071,0.0602,0.0637,0.0608,,0.0606,0.069,,,0.0635,0.0762,0.0629,0.0476,,0.0711,0.0739,0.117,
N52T,0.0688,0.0785,,,0.0732,0.0641,,0.0517,0.0792,0.0574,0.0615,,0.0509,0.0615,,,0.0517,0.0789,,
